Experimental data from PubChem BioAssay AID1460 (National Center for Advancing Translational Sciences (NCATS), 2008).
Screen size: about 270,000 compounds; about 5,800 (2.1%) were called active. The inconclusive results got no clear call from the source; some entries with a clear call stand among them for comparison. Calls follow the shape of the dose curve; as a rule, active = well fitted inhibition curve with a large enough effect; inconclusive = small, poorly fitted or top-dose-only effect; inactive = flat fitted curve, though single readings scatter. Where the call is inconclusive, the potency comes from a doubtful curve fit.

molecular target: Microtubule-associated protein tau (Homo sapiens) (UniProt P10636); assay: qHTS for Inhibitors of Tau Fibril Formation, Thioflavin T Binding; details: recombinant tau K18 P301L (four-repeat tau fragment), heparin-induced fibrillization, ThT fluorescence; series mostly up to 57.4 µM; also: nearly all actives have a fitted effect of over 55% in size
Sequence of UniProt P10636 (P10636 whole entry, looked up, the tested form may be a part): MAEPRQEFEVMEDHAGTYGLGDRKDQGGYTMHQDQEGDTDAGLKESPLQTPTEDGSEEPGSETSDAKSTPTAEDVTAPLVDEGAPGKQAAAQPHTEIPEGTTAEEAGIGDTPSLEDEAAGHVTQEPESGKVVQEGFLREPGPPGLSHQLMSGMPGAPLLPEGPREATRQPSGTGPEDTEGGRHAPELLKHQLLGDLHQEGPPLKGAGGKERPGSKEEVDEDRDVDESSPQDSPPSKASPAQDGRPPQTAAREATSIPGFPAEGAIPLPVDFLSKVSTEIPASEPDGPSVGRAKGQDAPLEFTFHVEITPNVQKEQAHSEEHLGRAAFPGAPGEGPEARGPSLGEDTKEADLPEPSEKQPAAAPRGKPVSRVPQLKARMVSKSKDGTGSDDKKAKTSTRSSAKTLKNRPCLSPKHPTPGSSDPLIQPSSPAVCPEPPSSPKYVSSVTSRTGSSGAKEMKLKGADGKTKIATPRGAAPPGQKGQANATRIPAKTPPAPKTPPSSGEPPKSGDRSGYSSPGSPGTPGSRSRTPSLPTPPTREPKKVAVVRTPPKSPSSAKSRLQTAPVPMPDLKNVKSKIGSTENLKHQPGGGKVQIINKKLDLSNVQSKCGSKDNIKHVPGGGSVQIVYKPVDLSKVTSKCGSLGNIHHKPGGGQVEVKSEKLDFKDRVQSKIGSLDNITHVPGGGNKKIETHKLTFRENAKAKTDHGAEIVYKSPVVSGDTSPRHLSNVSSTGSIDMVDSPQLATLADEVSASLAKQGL
How it was run: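 Aggregation was driven by heparin (20 uM final) acting on recombinant tau […] bearing P301L in 100 mM sodium acetate pH 7; fibrils were detected with Thioflavin T.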
% is scaled to controls: 0 for no effect and ±100 for the full control effect; potency is read from the fitted curve at half-maximal effect; tags tell the direction and shape of the fitted curve.

Compound | Potency | activity, negative = inhibition
CCOC(=O)c1sc(N/N=C/c2cccc(C)c2)nc1C | inconclusive: 3.98 µM [inhibitor, partial curve, poor fit] | –
C/C(=N\Nc1nc2ccccc2[nH]1)c1cccs1 | inconclusive: 28.2 µM [inhibitor, partial curve] | –
CCC(=O)N1CCN(c2nc3c(C)cccc3s2)CC1 | inconclusive: 14.1 µM [inhibitor, single point] | –
CCOc1ccc(N2C(=O)CC(NCCNc3ccc(C(=O)c4cccs4)cc3)C2=O)cc1 (stereo unspecified) | inconclusive: 22.4 µM [inhibitor, partial curve] | –
O=C(C1CCN(S(=O)(=O)N2CCC3(CC2)OCCO3)CC1)N1CCC(Cc2ccccc2)CC1 | inconclusive: 17.8 µM [inhibitor, partial curve] | –
CC(=O)c1ccc(OCC(=O)c2cc(C)n(-c3ccc4c(c3)OCO4)c2C)cc1 | inconclusive: 15.8 µM [inhibitor, partial curve] | –
CCC(C)NC(=O)CSc1nnc(-c2c[nH]c3ccccc23)o1 (stereo unspecified) | inactive | –
COc1cccc(/C=C/c2ccccn2)c1O | inconclusive: 10 µM [inhibitor, partial curve] | –
COc1cccc(-c2nc3c(c(SCc4ccccc4Cl)n2)Cc2c(CO)cnc(C)c2O3)c1 | inactive | –
O=C(O)c1ccc2c(c1)ncn2C1CCCCC1 | inactive | –
CN(C)c1ccc(CNC(=O)CN2C(=O)CCn3nc(-c4cn(C)c5ccccc45)cc32)cc1 | inactive | –
O=C(Nc1ccc2oc(-c3ccccc3)nc2c1)c1ccc2c(c1)OCCO2 | inconclusive: 0.631 µM [inhibitor, single point] | –
Cc1ccc(Nc2ccc(S(=O)(=O)N3CCOCC3)cc2[N+](=O)[O-])cc1C | inconclusive: 17.8 µM [inhibitor, partial curve] | –
COc1ccc(CNS(=O)(=O)c2ccc(F)c(C(=O)Nc3c(C)cc(C)cc3C)c2)cc1 | inactive | –
CCCOc1ccc(C(=O)CCC(=O)OCC(=O)Nc2ccc(Oc3ccccc3)cc2)cc1 | inconclusive: 1.41 µM [inhibitor, full curve, poor fit] | –
COc1ccc(CCNC(=O)c2ccc3c(SCC(=O)O)c4c(nc3c2)CCCC4)cc1OC | inconclusive: 22.4 µM [inhibitor, partial curve, poor fit] | –
COc1ccc2nc3sc(C(=O)N4CCN(c5ccc(F)cc5)CC4)cc3cc2c1 | inconclusive: 3.98 µM [inhibitor, full curve, poor fit] | –
CCc1ccc(C(=O)CSc2nc(-c3ccccc3)nc3c2CCCC3)cc1 | inactive | –
Cc1ccc(CNC(=O)CN2C(=O)CSc3ccc(S(=O)(=O)N4CCCC4)cc32)cc1 | inactive | –
N=c1c2cn[nH]c2nc(SCC(=O)c2ccc(Br)cc2)n1-c1ccc(Br)cc1 | inactive | –
COc1cc(C)ccc1OCCSc1nc2ccc(NC(=O)c3cccs3)cc2s1 | inactive | –
CC(=O)C1=C(O)C(=O)N(CCc2c[nH]c3ccccc23)C1c1cccc(O)c1 (stereo unspecified) | inconclusive: 35.5 µM [inhibitor, single point] | –

Compound | Potency | activity, negative = inhibition
COC1=C(Nc2ccccc2OC)C(=O)c2ccccc2C1=O | inconclusive: 14.1 µM [inhibitor, partial curve] | –
O=C(c1cnn(-c2ccc(Cl)cc2)c1)c1ccccc1O | inconclusive: 17.8 µM [inhibitor, partial curve] | –
Cc1ccc(-c2nc3cc(N)ccc3o2)c(C)c1 | inconclusive: 11.2 µM [inhibitor, partial curve] | –
CCCN(CCC)C(=O)c1cn(CC)c2ccc(S(=O)(=O)N3CCCCC3)cc2c1=O | inactive | –
COc1cccc(CNC(=O)C2CCN(C(=O)c3sccc3-n3cccc3)CC2)c1 | inconclusive: 17.8 µM [inhibitor, partial curve, poor fit] | –
Fc1ccc(C2=NNC(=NCc3ccccc3)SC2)cc1F | inconclusive: 22.4 µM [inhibitor, partial curve] | –
CCOc1cc(N2CCOCC2)c(OCC)cc1NC(=O)c1cc(C)nc2ccccc12 | inconclusive: 31.6 µM [inhibitor, single point] | –
COCCCNC(=O)c1sc2nc(C)c(C(=O)Nc3ccc(C)cc3C)c(-c3ccc(Br)cc3)c2c1N | inconclusive: 14.1 µM [inhibitor, partial curve] | –
COc1ccc(-c2noc(CN(C(=O)Cc3ccc(C)cc3)C(C)C)n2)cc1 | inconclusive: 20 µM [inhibitor, single point] | –
COc1ccc(CCNC(=O)c2ccc(-c3ccc([N+](=O)[O-])cc3Cl)o2)cc1OC | inconclusive: 4.47 µM [inhibitor, full curve] | –
Cc1ccc(CSCCC(=O)N2CCN(c3cc(C)ccc3C)CC2)cc1 | inconclusive: 2.82 µM [inhibitor, full curve, poor fit] | –
COc1ccc(CCNC(=O)CCCOc2cccc(C)c2C)cc1OC | inconclusive: 39.8 µM [inhibitor, single point] | –
O=C(NCC1CCCO1)c1cc(-c2ccccc2)on1 (stereo unspecified) | inactive | –
COc1ccc(-c2cc(C(=O)Nc3sc4c(c3C(N)=O)CCC(C)C4)no2)cc1 (stereo unspecified) | inconclusive: 3.16 µM [inhibitor, full curve] | –
COC(=O)c1cc(OC)c(OC)cc1NC(=S)N1CCN(c2ccccc2)CC1 | inconclusive: 28.2 µM [inhibitor, partial curve, poor fit] | –
COc1ccc(N2CCN(C(=O)CC(NC(N)=O)c3cccc(Oc4ccccc4)c3)CC2)cc1 (stereo unspecified) | inconclusive: 17.8 µM [inhibitor, partial curve] | –
Cc1cc(O)cc(O)c1C=NCc1ccco1 | inconclusive: 35.5 µM [inhibitor, partial curve] | –
CC(C)(C)c1nc(SCC(=O)NCc2ccco2)c2ccccc2n1 | inconclusive: 39.8 µM [inhibitor, single point] | –
COc1ccc(/C=C/C(=O)Nc2ccc(Cl)cc2Cl)cc1 | inconclusive: 2 µM [inhibitor, full curve] | –
O=C(NCc1ccco1)c1nc2nc(-c3cccs3)cc(C(F)(F)F)n2n1 | inconclusive: 22.4 µM [inhibitor, single point] | –
CC1=CC=CN2C1=NC(=O)CC2(C)C(=O)N(CC(=O)NC1CCCC1)c1cc(C)cc(C)c1 (stereo unspecified) | inactive | –
S=C(c1ccc(-c2ccc(Cl)cc2Cl)o1)N1CCCC1 | inconclusive: 15.8 µM [inhibitor, partial curve] | –

Compound | Potency | activity, negative = inhibition
Cc1ccc(Cn2ccnc2SCC(=O)Nc2ccc3c(c2)OCCO3)cc1 | inactive | –
Cc1ccccc1C(=O)Nc1nc(=S)ss1 | inconclusive: 35.5 µM [inhibitor, single point] | –
N#CC1=C(N)C(C#N)(C#N)C(c2ccncc2)C2CN(C(=O)OCc3ccccc3)CC=C12 (stereo unspecified) | active: 25.1 µM | –
O=c1c(C(c2ccccc2)c2c(O)nc3n(c2=O)CCS3)c(O)nc2n1CCS2 | inconclusive: 12.6 µM [inhibitor, partial curve] | –
Cc1cc(NS(=O)(=O)c2ccc(NC(=O)COc3ccccc3Cl)cc2)no1 | inactive | –
CCC1S/C(=C(\C#N)C(=O)NCc2ccco2)N(c2ccc(Br)cc2)C1=O (stereo unspecified) | inconclusive: 31.6 µM [inhibitor, single point] | –
O=C(Nc1ccon1)c1ccc(N2CCCCC2)c([N+](=O)[O-])c1 | inconclusive: 15.8 µM [inhibitor, partial curve] | –
Cc1ccc(S(=O)(=O)C(CNC(=O)COc2ccc(Cl)cc2)c2ccco2)cc1 (stereo unspecified) | inactive | –
C/C=C\C=C/C(=O)Nc1cccc(C2=NOC3(C2)C[C@@H](C(N)=O)N(C(=O)/C=C/C=C\C)C3)c1 (stereo partly specified) | active: 25.1 µM | –
CC(=O)Nc1cccc(NC(=O)CSc2nccn2Cc2ccco2)c1 | inactive | –
O=c1[nH]c2cc3c(cc2cc1C(c1nnnn1Cc1ccccc1)N1CCCCCC1)OCCO3 (stereo unspecified) | inconclusive: 28.2 µM [inhibitor, partial curve] | –
CCOC(=O)N/N=C1/C[C@@H](O)[C@@H](O)[C@@H]2[C@@H]3C(=O)N(C[C@@H]4CCCO4)C(=O)[C@H]3CC[C@@H]12 | – | inactive: -9.18% [at 11.5 µM]
Cc1ccc(SCc2cc(=O)[nH]c(Nc3nc(C)c4cccc(C)c4n3)n2)cc1 | inconclusive: 3.55 µM [inhibitor, full curve] | –
Cc1cccc(Cl)c1NC(=O)N1CCCN(c2nc3ccc(Cl)cc3s2)CC1 | inconclusive: 2.82 µM [inhibitor, partial curve] | –
COc1ccc(-c2cc3c(=O)n(CC(=O)Nc4cc(C)ccc4C)ccn3n2)cc1 | inactive | –
COc1ccc(N=C2SCC(c3ccc([N+](=O)[O-])cc3)=NN2CCO)cc1 | active: 11.2 µM | –
COc1cc(C=O)ccc1OCCCCOc1ccccc1[N+](=O)[O-] | inconclusive: 28.2 µM [inhibitor, single point] | –
Cc1cc2nc(-c3cccc(NC(=O)c4ccc(Br)o4)c3)oc2cc1C | inconclusive: 2.82 µM [inhibitor, full curve] | –
Cc1cccn2c(=O)cc(COc3ccc(NC(=O)C(C)Oc4ccccc4)cc3)nc12 (stereo unspecified) | inconclusive: 35.5 µM [activator, single point] | –
CCn1c(C)cc(/C=C2/NC(=O)N(CC(=O)Nc3cccc(C)c3)C2=O)c1C | inconclusive: 20 µM [inhibitor, partial curve] | –
COc1cccc(OCc2cc(=O)n3cc(C)sc3n2)c1 | inconclusive: 0.199 µM [inhibitor, full curve] | –
O=c1oc(-c2ccccc2)nc2sc3c(c12)CCCC3 | inconclusive: 12.6 µM [inhibitor, partial curve] | –
